Test results from the supplement of paper PMC8728848.
This is one part of the list.

Columns and labels:
Test in all cases: glycan array binding signal (z-score within array); higher = stronger binding
Conditions in all cases: glycan notation: IUPAC condensed, linker removed
[1] = target: Gal(b1-4)GlcNAc(b1-3)Gal(b1-4)GlcNAc(b1-3)[Gal(b1-4)GlcNAc(b1-3)Gal(b1-4)GlcNAc(b1-6)]GalNAc
Outline: (§1)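 The binding signal is a Z-score computed within each array. Data were drawn from 3228 arrays in the Consortium for Functional Glycomics database, restricted to those with a known protein sequence. Scores were averaged over arrays of the same protein sequence at different concentrations or buffers, and over linkers, and negative values can be taken as non-binding.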

[2] = target: Gal(b1-4)GlcNAc(b1-3)Gal(b1-4)GlcNAc(b1-6)[Gal(b1-3)]GalNAc
Outline: as §1

[3] = target: Gal(b1-4)GlcNAc(b1-3)Gal(b1-4)[Fuc(a1-3)]GlcNAc(b1-3)Gal(b1-4)[Fuc(a1-3)]GlcNAc
Outline: as §1

[4] = target: Gal(b1-4)GlcNAc(b1-3)GalNAc
Outline: as §1

[5] = target: Gal(b1-4)GlcNAc(b1-3)[Fuc(a1-3)GlcNAc(b1-6)]Gal(b1-4)Glc
Outline: as §1

[6] = target: Gal(b1-4)GlcNAc(b1-3)[Gal(b1-4)GlcNAc(b1-6)]Gal(b1-4)GlcNAc
Outline: as §1

[7] = target: Gal(b1-4)GlcNAc(b1-3)[GlcNAc(b1-6)]Gal(b1-4)GlcNAc
Outline: as §1

[8] = target: Gal(b1-4)GlcNAc(b1-6)Gal(b1-4)GlcNAc
Outline: as §1

[9] = target: Gal(b1-4)GlcNAc(b1-6)GalNAc
Outline: as §1

[10] = target: Gal(b1-4)GlcNAc(b1-6)[Gal(b1-3)]GalNAc
Outline: as §1

[11] = target: Gal(b1-4)GlcNAc(b1-6)[Gal(b1-4)GlcNAc(b1-3)]GalNAc
Outline: as §1

[12] = target: Gal(b1-4)GlcNAc6P
Outline: as §1

[13] = target: Gal(b1-6)Gal
Outline: as §1

[14] = target: Gal3S(b1-3)GalNAc
Outline: as §1

[15] = target: Gal3S(b1-3)GlcNAc
Outline: as §1

[16] = target: Gal3S(b1-3)[Fuc(a1-4)]GlcNAc
Outline: as §1

[17] = target: Gal3S(b1-4)Glc
Outline: as §1

[18] = target: Gal3S(b1-4)Glc6S
Outline: as §1

[19] = target: Gal3S(b1-4)GlcNAc
Outline: as §1

[20] = target: Gal3S(b1-4)[Fuc(a1-3)]Glc6S
Outline: as §1

[21] = target: Gal3S(b1-4)[Fuc(a1-3)]GlcNAc
Outline: as §1

[22] = target: Gal3S(b1-4)[Fuc(a1-3)]GlcNAc6S
Outline: as §1

[23] = target: Gal3S4S(b1-4)GlcNAc
Outline: as §1

[24] = target: Gal3S6S(b1-4)GlcNAc
Outline: as §1

[25] = target: Gal3S6S(b1-4)GlcNAc6S
Outline: as §1

[26] = target: Gal4S(b1-4)GlcNAc
Outline: as §1

[27] = target: Gal4S6S(b1-4)GlcNAc
Outline: as §1

[28] = target: Gal6P(b1-4)GlcNAc
Outline: as §1

[29] = target: Gal6S(b1-3)GlcNAc
Outline: as §1

[30] = target: Gal6S(b1-3)GlcNAc6S
Outline: as §1

[31] = target: Gal6S(b1-4)Glc
Outline: as §1

[32] = target: Gal6S(b1-4)Glc6S
Outline: as §1

[33] = target: Gal6S(b1-4)GlcNAc
Outline: as §1

[34] = target: Gal6S(b1-4)GlcNAc6S
Outline: as §1

[35] = target: GalNAc(a1-3)Gal
Outline: as §1

[36] = target: GalNAc(a1-3)GalNAc
Outline: as §1

[37] = target: GalNAc(a1-3)GalNAc(b1-3)Gal(a1-4)Gal(b1-4)Glc
Outline: as §1

[38] = target: GalNAc(a1-3)GalNAc(b1-3)Gal(a1-4)Gal(b1-4)GlcNAc
Outline: as §1

[39] = target: GalNAc(b1-3)Gal
Outline: as §1

[40] = target: GalNAc(b1-3)Gal(a1-4)Gal(b1-4)GlcNAc
Outline: as §1

[41] = target: GalNAc(b1-3)Gal(a1-4)Gal(b1-4)GlcNAc(b1-3)Gal(b1-4)Glc
Outline: as §1

[42] = target: GalNAc(b1-3)Gal(a1-6)Gal(b1-4)Glc
Outline: as §1

[43] = target: GalNAc(b1-3)GalNAc
Outline: as §1

[44] = target: GalNAc(b1-3)GlcNAc
Outline: as §1

[45] = target: GalNAc(b1-4)Gal(b1-4)Glc
Outline: as §1

B1: BTL (Bryothamnion triquetrum) (protein)
chain: ADPICGSSGYSCTTPAILTPKSPGSFPSGYSKVIVTGVGGSYSVYIHRPDGFKVYKASEGGCASFGSYSGGGNSEVGKYGSGGTVVAVACK
- glycan array binding signal (z-score) [1]: -0.096
- glycan array binding signal (z-score) [2]: -0.128
- glycan array binding signal (z-score) [3]: -0.163
- glycan array binding signal (z-score) [4]: -0.188
- glycan array binding signal (z-score) [5]: -0.23
- glycan array binding signal (z-score) [6]: -0.235
- glycan array binding signal (z-score) [7]: -0.263
- glycan array binding signal (z-score) [8]: -0.221
- glycan array binding signal (z-score) [9]: -0.162
- glycan array binding signal (z-score) [10]: -0.252
- glycan array binding signal (z-score) [11]: -0.242
- glycan array binding signal (z-score) [12]: -0.154
- glycan array binding signal (z-score) [13]: -0.25
- glycan array binding signal (z-score) [14]: -0.283
- glycan array binding signal (z-score) [15]: -0.223
- glycan array binding signal (z-score) [16]: -0.256
- glycan array binding signal (z-score) [17]: -0.168
- glycan array binding signal (z-score) [18]: -0.219
- glycan array binding signal (z-score) [19]: -0.256
- glycan array binding signal (z-score) [20]: -0.128
- glycan array binding signal (z-score) [21]: -0.255
- glycan array binding signal (z-score) [22]: -0.239
- glycan array binding signal (z-score) [23]: -0.266
- glycan array binding signal (z-score) [24]: -0.237
- glycan array binding signal (z-score) [25]: -0.186
- glycan array binding signal (z-score) [26]: -0.304
- glycan array binding signal (z-score) [27]: -0.246
- glycan array binding signal (z-score) [28]: -0.224
- glycan array binding signal (z-score) [29]: -0.261
- glycan array binding signal (z-score) [30]: -0.24
- glycan array binding signal (z-score) [31]: -0.248
- glycan array binding signal (z-score) [32]: -0.18
- glycan array binding signal (z-score) [33]: -0.291
- glycan array binding signal (z-score) [34]: -0.228
- glycan array binding signal (z-score) [35]: -0.226
- glycan array binding signal (z-score) [36]: -0.245
- glycan array binding signal (z-score) [37]: -0.25
- glycan array binding signal (z-score) [38]: -0.245
- glycan array binding signal (z-score) [39]: -0.249
- glycan array binding signal (z-score) [40]: -0.197
- glycan array binding signal (z-score) [41]: -0.226
- glycan array binding signal (z-score) [42]: -0.249
- glycan array binding signal (z-score) [43]: -0.278
- glycan array binding signal (z-score) [44]: -0.266
- glycan array binding signal (z-score) [45]: -0.202
